Measured values: the antibiotic and cytotoxicity screens of Wong et al. (2023)
This is one part of the list.

test system: S. aureus RN4220; assay: growth inhibition call (relative growth <= 0.2); conditions: 50 µM

Growth inhibition call, active:
Cc1cc2nc(C(=O)N[C@H]3CCN(C)C3)cc(-c3ccccc3Cl)c2c(C)c1-c1ccc(CO)cc1

Growth inhibition call, inactive:
C[C@@H]1CN([C@H](C)CO)C(=O)c2cc(C#Cc3ccccc3F)cnc2O[C@@H]1CN(C)S(=O)(=O)c1ccccc1, CCS(=O)(=O)Nc1ccc2c(c1)C(=O)N(C)[C@H]1CC[C@@H](CC(=O)NCCOC)O[C@@H]1CO2, C[C@H](CO)N1C[C@H](C)[C@@H](CN(C)CC2CCCCC2)Oc2ccc(NC(=O)Nc3ccc(C(F)(F)F)cc3)cc2C1=O, CCCCCN1C/C=C\CCC(=O)N(C)[C@H](C)[C@@H](c2ccccc2)OC(=O)[C@@H]2[C@@H]3C=C[C@]4(O3)[C@H](C1=O)N(c1ccccc1Cl)C(=O)[C@@H]24, O=C(C[C@@H]1C=C[C@H](NC(=O)c2cccnc2)[C@@H](CO)O1)NCCN1CCCCC1, C[C@@H]1CN([C@@H](C)CO)C(=O)c2cccc(NS(C)(=O)=O)c2O[C@H]1CN(C)C(=O)Nc1ccc2c(c1)OCO2, C[C@H](CO)N1C[C@H](C)[C@H](CN(C)Cc2cccc(C(=O)O)c2)OCc2ccccc2-c2c(n(C)c3ccccc23)C1=O, C[C@H]1CN([C@@H](C)CO)S(=O)(=O)c2ccc(C3=CCCC3)cc2O[C@@H]1CN(C)C(=O)c1cnccn1, COC(=O)c1c2oc(c1C(=O)OC)C(=O)N(C)Cc1cn(nn1)C[C@H](Cc1ccccc1)NC(=O)N[C@H](CO)CC2, C[C@H](CO)N1C[C@H](C)[C@H](CN(C)S(=O)(=O)c2cn(C)cn2)Oc2ccc(NS(=O)(=O)c3ccc(F)cc3)cc2CC1=O, C[C@@H]1CCCCO[C@@H](CN(C)C(=O)Nc2ccc3c(c2)OCO3)[C@H](C)CN([C@H](C)CO)C(=O)c2cc(NC(=O)Nc3ccc(C(F)(F)F)cc3)ccc2O1, C[C@@H]1CN([C@@H](C)CO)C(=O)c2cc(NS(=O)(=O)c3cn(C)cn3)ccc2O[C@@H]1CN(C)Cc1ccncc1, COc1ccc(NC(=O)N(C)C[C@H]2OCc3ccccc3-c3c(n(C)c4ccccc34)C(=O)N([C@H](C)CO)C[C@@H]2C)c(OC)c1, Cc1noc(C)c1NC(=O)N(C)C[C@@H]1Oc2ccc(NC(=O)Nc3cccc4ccccc34)cc2CC(=O)N([C@@H](C)CO)C[C@@H]1C, COc1cccc(C(=O)Nc2ccc3c(c2)C(=O)N(C)[C@H]2CC[C@@H](CC(=O)NCC4CC4)O[C@H]2CO3)c1, COc1cc(C(C)=O)ccc1O, [O-][n+]1onc2c1CCc1c-2nn(-c2ccccc2)[n+]1[O-], Cc1ccc(S(=O)(=O)N2C[C@@H](O)COC[C@H]3O[C@@H](CC(=O)NCc4ccc5c(c4)OCO5)CC[C@@H]32)cc1, C[C@H](CO)N1C[C@H](C)[C@@H](CN(C)S(C)(=O)=O)Oc2ccc(NS(=O)(=O)c3ccc(F)cc3)cc2C1=O, O=C(/C=C/c1ccc(O)c(O)c1)O[C@]1(C(=O)O)C[C@@H](O)[C@H](O)[C@H](O)C1, CCCCC/C=C\C/C=C\C/C=C\CCCCCCC(=O)O, COc1ccc(S(=O)(=O)N[C@H]2CC[C@H](CC(=O)N3CCN(c4ccccc4)CC3)O[C@H]2CO)cc1, CC(C)Oc1oc(C(=O)NC2CCCCC2)c(-c2ccc(Cl)cc2)c1S(=O)(=O)c1ccc(Cl)cc1, COc1cc2c(Oc3ccc(NC(=O)C4(C(=O)Nc5ccc(F)cc5)CC4)cc3F)ccnc2cc1OCCCN1CCOCC1, COc1ccc(S(=O)(=O)Nc2cccc3c2O[C@@H](CN(C)C(=O)Nc2c(C)noc2C)[C@@H](C)CN([C@@H](C)CO)C3=O)cc1, COc1ccc(C(=O)Nc2ccc3c(c2)C(=O)N(C)[C@H]2CC[C@H](CC(=O)NCC4CC4)O[C@H]2CO3)cc1, CN(C)CC(=O)N1CCO[C@]2(COCCN(c3cncnc3)C2)C1, COc1ccc(NC(=O)N(C)C[C@H]2Oc3c(NC(=O)c4cc(C)nn4C)cccc3C(=O)N([C@@H](C)CO)C[C@@H]2C)cc1, C[C@@H]1CN([C@H](C)CO)C(=O)c2cc(-c3ccc(C(=O)N(C)C)cc3)cnc2O[C@H]1CN(C)C(=O)c1cccnc1, C=CCNC(=O)[C@H]1[C@@H]2C(=O)O[C@@H](c3ccccc3)[C@@H](c3ccccc3)N2[C@@H](c2ccc(O)cc2)[C@]12C(=O)Nc1ccc(C#CC3=CCCCC3)cc12, COc1ccc(CN(C)C[C@@H]2Oc3c(NC(=O)C4CCOCC4)cccc3C(=O)N([C@@H](C)CO)C[C@H]2C)cc1, COc1ccc2c3c([nH]c2c1)[C@@H](CO)N(C[C@]13CCN(CC1)C(=O)Nc1ccc(cc1)F)C(=O)c1ccc(cc1)F, O=C(Nc1ncc(SCCN2CCCC2)s1)[C@]1(c2ccc(S(=O)(=O)C3CC3)cc2)C[C@H]1C1CCCCC1, COc1ccc(C2=NS(=O)(=O)N(C)C(C(=O)N3CCC(C(N)=O)CC3)=C2)cc1, Cc1ccc(S(=O)(=O)Nc2ccc3c(c2)C(=O)N([C@H](C)CO)C[C@H](C)[C@@H](CN(C)C(=O)Nc2ccc(F)cc2)OCCCC[C@H](C)O3)cc1, C[C@H](CO)N1C[C@H](C)[C@H](CN(C)C(=O)CN2CCOCC2)Oc2ncc(/C=C/c3ccccc3)cc2C1=O, CNC(=O)c1c(F)cccc1Nc1nc(Nc2cc3c(cc2OC)CCN3C(=O)CN(C)C)nc2[nH]ccc12, C[C@@H]1CN([C@H](C)CO)C(=O)c2cccc(NS(=O)(=O)c3ccccc3)c2O[C@H]1CN(C)CC1CC1, C[C@H]1CN([C@@H](C)CO)C(=O)c2cc(NS(=O)(=O)c3ccccc3)ccc2O[C@@H]1CN(C)Cc1ccc(Oc2ccccc2)cc1
